Source: the supplement of paper PMC3334620
Over roughly 33,000 sequences, “E-score (-0.5 to 0.5)” has its median near -0.032; the highest 2% begin near 0.36. Some of the results follow.

What follows are sequences tested against T1, Sko1 (UniProt Q02100) (assay: PBM E-score (8-mer binding enrichment) (E-score (-0.5 to 0.5)); higher = stronger / more preferred TF binding; most listed sequences are background and not binding sites). Settings: protein concentration: 200 nM; construct: GST-full length.
T1 sequence: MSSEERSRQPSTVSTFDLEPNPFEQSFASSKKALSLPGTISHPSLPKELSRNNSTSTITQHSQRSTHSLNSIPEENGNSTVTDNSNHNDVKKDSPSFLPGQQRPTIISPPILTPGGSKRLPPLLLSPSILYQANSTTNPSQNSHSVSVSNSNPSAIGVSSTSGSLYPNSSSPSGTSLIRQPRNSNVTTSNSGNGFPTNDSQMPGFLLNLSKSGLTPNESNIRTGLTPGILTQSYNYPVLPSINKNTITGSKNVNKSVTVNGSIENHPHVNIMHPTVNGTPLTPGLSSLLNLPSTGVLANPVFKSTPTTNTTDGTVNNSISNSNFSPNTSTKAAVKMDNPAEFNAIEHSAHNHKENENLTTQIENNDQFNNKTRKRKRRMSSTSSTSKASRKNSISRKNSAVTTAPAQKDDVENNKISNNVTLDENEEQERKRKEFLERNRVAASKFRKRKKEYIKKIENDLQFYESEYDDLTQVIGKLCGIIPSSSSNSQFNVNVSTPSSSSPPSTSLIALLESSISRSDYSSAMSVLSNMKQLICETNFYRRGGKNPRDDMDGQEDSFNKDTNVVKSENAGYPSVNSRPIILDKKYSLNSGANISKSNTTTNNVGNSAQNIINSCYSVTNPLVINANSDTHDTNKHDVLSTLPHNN
Description: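 Universal 'all 10-mer' protein binding microarrays (Agilent AMADID 015681) probed with GST-tagged S. cerevisiae TFs (full-length or DBD) made by in vitro transcription/translation (PURExpress), about 100-200 nM. Bound TF was detected with fluorescent anti-GST. Each ungapped 8-mer (which stands for itself and its reverse complement) is scored by the PBM enrichment score (E-score), a modified Wilcoxon-Mann-Whitney statistic from -0.5 to +0.5, computed with the Universal PBM Analysis Suite. Scale: above 0.35 generally sequence-specific binding.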

Row | Sequence | PBM E-score
1 | ACGAGTAT | 0.114
2 | ACCAAGCT | 0.0443
3 | GGCAATCA | -0.071
4 | CATGTTGG | -0.0925
5 | CACCAGGG | -0.316
6 | AAACGGAA | 0.133
7 | GCGGAGGA | -0.277
8 | CCTATGGA | -0.21
9 | ACGCGTGG | 0.106
10 | CCAGACGC | -0.155
11 | CAACTAAC | 0.122
12 | CCTGGTGC | -0.204
13 | TGCCCAAA | -0.262
14 | AACCTAAC | 0.0881
15 | AAGGTGGG | -0.384
16 | GGCATTTA | -0.0199
17 | CCAGATAA | -0.0248
18 | ACCCTGCG | 0.07
19 | AAGTGCCT | -0.219
20 | AGCACTAC | -0.0579
21 | ATGAGCTG | -0.0587
22 | ATGTGTAC | 0.128

Row | Sequence | PBM E-score
23 | ATAGCGCC | -0.105
24 | CAAGCAGA | -0.0379
25 | CAACCGGC | -0.283
26 | ATTAGCTA | 0.131
27 | ATTCGCCC | -0.184
28 | AGGCTTTG | -0.246
29 | CCGTGACA | -0.14
30 | CGGGTGGC | -0.283
31 | GATCTGTA | -0.0458
32 | AGGTCATG | 0.0635
33 | GTATCTGA | 0.144
34 | AGGTCAGA | -0.147
35 | TTAGTCAA | 0.0708
36 | ATGCTCGG | -0.109
37 | CTCCCGGC | -0.278
38 | AAGTGGAT | -0.11
39 | AAACGTCT | 0.341
40 | CGTTGTCA | 0.163
41 | CCGAGGCC | -0.349
42 | ATACTTCC | -0.161
43 | CAACTGTC | -0.0925
44 | GAATACTC | -0.0176

Row | Sequence | PBM E-score
45 | ATACGAGA | 0.113
46 | ACGTGGGG | 0.316
47 | GACTGGGC | -0.262
48 | GTCGATGA | 0.1
49 | GCGAGGTA | -0.163
50 | CGATCTGC | -0.138
51 | CGTTGAAG | 0.0614
52 | ACAGGGGA | -0.235
53 | AGTCAGCA | 0.175
54 | CCTTGTCC | -0.314
55 | TACGTGGA | 0.424
56 | CTCTGCTC | -0.3
57 | AGCTTAAT | 0.0147
58 | CCTCTAGA | -0.162
59 | ATACTTGC | 0.149
60 | GCGAGTAC | -0.0244
61 | CCGCAAAA | 0.0518
62 | ATTAGACC | -0.165
63 | AGGACCCC | -0.236
64 | CGGGCCCA | -0.0705
65 | CCGATTCA | -0.0674
66 | GTGGGAAA | -0.00764

Row | Sequence | PBM E-score
67 | CAACGACC | -0.00955
68 | CTCACCCA | -0.244
69 | CCGGGTAC | -0.313
70 | ATTAGTAG | 0.106
71 | GACTATCC | -0.236
72 | CTCCCATC | -0.206
73 | GCCACGGA | -0.215
74 | AACAACTT | 0.039
75 | CAGAGACA | -0.2
76 | ACACCTCT | -0.0505
77 | GAATTAGA | 0.253
78 | ACACTTTG | 0.132
79 | ACAACTTC | 0.0266
80 | CGGCCTCA | -0.178
81 | TTATGAAA | 0.2
82 | AGCTCGTC | 0.0876
83 | GCTGCAAA | 0.0543
84 | CACTCCGG | 0.0274
85 | CAATCCTG | -0.0168
86 | CGCCGGAC | -0.137
87 | ATGGCTGA | 0.0743
88 | AATCGAAG | 0.138

Row | Sequence | PBM E-score
89 | TAGCGAGA | -0.0215
90 | ATTTGCGG | -0.0383
91 | CCGATGCC | -0.239
92 | AACCCTCT | -0.31
93 | AGCCTAGC | -0.106
94 | AGACCCGA | 0.0239
95 | CCGCGTCA | 0.377
96 | TGCTACCA | -0.106
97 | CTACACTC | -0.194
98 | TAGCACGA | 0.0815
99 | ACCTCTTG | -0.201
100 | AACCCGAA | -0.0411
101 | AACGGCGT | 0.027
102 | CGACTTAG | 0.0366
103 | AGTACGAG | 0.00509
104 | GCTAACTA | 0.0909
105 | ACTCTTCG | 0.0552
106 | GCCCTAAA | -0.188
107 | GCCCCTTA | -0.325
108 | ACTAACAT | 0.196
109 | ACCAAACG | 0.0184
110 | CTACTGTC | -0.131
